{"source": "PubChem BioAssay AID624417", "about": "(National Center for Advancing Translational Sciences (NCATS), 2012)", "note": "The campaign covered roughly 410,000 compounds. About 6,400 (1.6%) were called active. The shares of active, inactive and inconclusive entries below differ from those in the screen. The call rests on the fitted dose curve; in most records, active means well fitted inhibition curve with a large enough effect; inconclusive means small, poorly fitted or top-dose-only effect; inactive means no such curve, though single readings can be large or run the other way. Potencies of inconclusive entries are left out as doubtful fits. Potency means the concentration at half of the fitted maximal effect; tags describe the fitted curve by direction and shape.", "data": [{"target": "Glucagon-like peptide 1 receptor (Homo sapiens) (UniProt P43220)", "sequence (P43220 whole entry, looked up)": "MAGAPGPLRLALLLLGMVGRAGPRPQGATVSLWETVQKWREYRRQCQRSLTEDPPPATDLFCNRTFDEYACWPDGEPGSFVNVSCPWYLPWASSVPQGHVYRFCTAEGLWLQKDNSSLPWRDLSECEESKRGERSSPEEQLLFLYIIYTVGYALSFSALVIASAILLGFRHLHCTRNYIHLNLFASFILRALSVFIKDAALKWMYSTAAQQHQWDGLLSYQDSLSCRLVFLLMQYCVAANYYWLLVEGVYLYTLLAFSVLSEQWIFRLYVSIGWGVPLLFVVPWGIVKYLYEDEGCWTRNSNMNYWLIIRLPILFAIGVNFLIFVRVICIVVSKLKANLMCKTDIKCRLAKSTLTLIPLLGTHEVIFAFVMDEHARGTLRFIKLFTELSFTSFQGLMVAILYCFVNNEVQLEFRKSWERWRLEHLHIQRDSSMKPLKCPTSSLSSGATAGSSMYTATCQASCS", "experiment": "qHTS of GLP-1 Receptor Inverse Agonists (Inhibition Mode); further: nearly all actives have a fitted effect of over 55% in size", "conditions": "HEK293 GLP-1R CRE-luciferase, luminescence, 24 h, GLP-1R form is constitutively active; series mostly up to 38.3 µM", "in_short": "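Cells are plated, allowed 12 hours at 37 deg C, then treated with compounds for 24 hr before luciferase detection reagent is added and luminescence is read after 12 min at room temperature. The HEK293 line carries constitutively active GLP-1R with a cAMP-responsive reporter.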", "values": [{"smiles": "CCC(CC)C(=O)N1CC(=O)Nc2ccc(F)cc2C1c1ccc(F)cc1", "note": "(stereo not given)", "Potency": "inconclusive [inhibitor, partial curve, poor fit]"}, {"smiles": "Clc1cccc(N2CCN(Cc3nc(-c4ccccc4)no3)CC2)c1", "Potency": "inconclusive [inhibitor, single point]"}, {"smiles": "O=C(Cn1c(C(=O)NCCCN2CCOCC2)cc2sccc21)c1ccccc1", "Potency": "inactive"}, {"smiles": "COc1cccc(-c2nnc(SCc3ccc(C#N)cc3)n2Cc2ccco2)c1", "Potency": "inconclusive [inhibitor, single point]"}, {"smiles": "O=C(Nc1ccc(C(F)(F)F)cc1)c1ccc2nc[nH]c2c1", "Potency": "inconclusive [inhibitor, single point]"}, {"smiles": "COc1ccc(NC(=S)NNC(=O)c2ccccc2OC(F)F)cc1", "Potency": "inactive"}, {"smiles": "CC1CCCN(CCCNC(=O)c2cc(Sc3ccc(F)cc3)nc3ccccc23)C1", "note": "(stereo not given)", "Potency": "inactive"}, {"smiles": "COc1cc(NC(=O)Cn2nc(C(F)(F)F)c3c2CCC3)cc(OC)c1OC", "Potency": "inactive"}, {"smiles": "CC(=O)c1cccc(NC(=O)Cc2coc3cc4c(cc23)CCC4)c1", "Potency": "inconclusive [inhibitor, single point]"}, {"smiles": "Cc1cc(C)cc(C(=O)Nc2cccc(NC(=O)c3ccco3)c2)c1", "Potency": "inconclusive [inhibitor, partial curve, poor fit]"}, {"smiles": "O=C(NCCN1CCN(Cc2ccccc2)CC1)C1CC(=O)N(C2CCCC2)C1", "note": "(stereo not given)", "Potency": "inactive"}, {"smiles": "Cc1ccnc(NCc2cccc3ccccc23)c1", "Potency": "inconclusive [inhibitor, partial curve, poor fit]"}, {"smiles": "Cc1ccc(-n2nnnc2SCC(=O)NCC2(N3CCCCC3)CCCCC2)c(C)c1", "Potency": "inconclusive [inhibitor, partial curve, poor fit]"}, {"smiles": "Clc1nc(-c2ccccc2)cc(-c2ccccc2)n1", "Potency": "inconclusive [inhibitor, single point]"}, {"smiles": "Cc1ccc(C#N)c(SCc2nnc(-c3ccc(Cl)cc3)o2)n1", "Potency": "inactive"}, {"smiles": "CCOC(=O)c1c(C)[nH]c(C)c1S(=O)(=O)N(C)CC(=O)Nc1ccc(OC)cc1", "Potency": "inactive"}, {"smiles": "COc1ccc(NC(=O)c2cc(C3CCCCN3C(=O)c3cc(C(C)(C)C)nn3C)on2)c(C)c1", "note": "(stereo not given)", "Potency": "inconclusive [inhibitor, partial curve, poor fit]"}, {"smiles": "Cc1cccc(Cn2cc(S(=O)(=O)c3cccc(Cl)c3)c(=O)c3cc(F)c(N4CCOCC4)cc32)c1", "Potency": "inactive"}, {"smiles": "CC1CCCC(C)N1C(=O)c1ccccc1Nc1ccc(SC(F)F)cc1", "note": "(stereo not given)", "Potency": "active: 5.62 µM"}, {"smiles": "Cn1c(=O)c2nc(SCC(=O)Nc3ccc(OC(F)(F)F)cc3)n(C)c2n(C)c1=O", "Potency": "inactive"}, {"smiles": "Cc1ccc(NC(=O)N2CCCCCC2)cc1C", "Potency": "inactive"}, {"smiles": "COc1ccc(OC)c(Nc2cc(C)c3ccccc3n2)c1", "Potency": "inconclusive [inhibitor, single point]"}, {"smiles": "CCNC(=S)NNC(=O)c1cc(-c2cccc(OCC)c2)nc2ccccc12", "Potency": "inactive"}, {"smiles": "Cc1ccccc1NC(=O)Cn1cc(C(=O)c2ccco2)c2ccccc21", "Potency": "inconclusive [inhibitor, single point]"}, {"smiles": "O=C(CN1CCN(c2nc(-c3ccccc3)cs2)CC1)NNC(=O)c1ccc(Br)cc1", "Potency": "inconclusive [inhibitor, partial curve, poor fit]"}, {"smiles": "O=C(CCNC(=O)c1ccc([N+](=O)[O-])cc1)NCCC1=CCCCC1", "Potency": "inconclusive [inhibitor, single point]"}, {"smiles": "Cc1ccccc1Cn1ccc(NC(=O)CCSc2nc(-c3ccco3)cc(C(F)(F)F)n2)n1", "Potency": "inconclusive [inhibitor, single point]"}, {"smiles": "O=C(Nc1ccc(F)cc1F)C1CCN(c2ncccn2)CC1", "Potency": "inactive"}, {"smiles": "O=C(Cn1nnc(-c2ccncc2)n1)N(C1CCCCC1)C1CCCCC1", "Potency": "inconclusive [inhibitor, partial curve, poor fit]"}, {"smiles": "CCOC(=O)C1(CCc2ccccc2)CCN(C(=O)c2occc2C)CC1", "Potency": "inconclusive [inhibitor, single point]"}, {"smiles": "O=C(Cc1ccccc1)Nc1ccccc1Oc1ccccc1", "Potency": "inconclusive [inhibitor, partial curve, poor fit]"}, {"smiles": "CC(C)CCN(C(=O)CNC(=O)c1ccco1)C(C(=O)NC1CCCCC1)c1ccco1", "note": "(stereo not given)", "Potency": "inconclusive [inhibitor, single point]"}, {"smiles": "Cc1onc(-c2c(F)cccc2Cl)c1C(=O)NNC(=O)C1CCN(Cc2cccc(F)c2)CC1", "Potency": "inconclusive [inhibitor, single point]"}, {"smiles": "O=C(c1ccc(Cl)c(Cl)c1)N1CCN(Cc2ccc3c(c2)OCO3)CC1", "Potency": "inconclusive [inhibitor, single point]"}, {"smiles": "Cc1ccc(Cl)cc1-c1ccc(C=Nc2ccc(N3CCOCC3)cc2)o1", "Potency": "inconclusive [inhibitor, partial curve, poor fit]"}, {"smiles": "COC(=O)Cn1c(C2CC(=O)N(c3c(C)cccc3C)C2)nc2ccccc21", "note": "(stereo not given)", "Potency": "inactive"}, {"smiles": "Cc1cc(NC(=O)CCc2nc3cccnc3n2-c2ccccc2)ccc1Br", "Potency": "inactive"}, {"smiles": "Fc1ccc(Oc2nc(-c3ccccc3)nnc2C(F)(F)F)cc1", "Potency": "inactive"}, {"smiles": "CCOc1ccc(-c2nc(N)ncc2-c2ccc(Cl)cc2)c(O)c1", "Potency": "inconclusive [inhibitor, single point]"}, {"smiles": "COc1ccc(Br)cc1/C=C/C(=O)Nc1c(C)cccc1C", "Potency": "inconclusive [inhibitor, partial curve, poor fit]"}, {"smiles": "CCN(C(=O)CN1C(=O)NC2(CCc3ccccc32)C1=O)C1CCS(=O)(=O)C1", "note": "(stereo not given)", "Potency": "inactive"}, {"smiles": "COc1cc2c(cc1NC(=O)C(C)Sc1ccc(NC(C)=O)cc1)oc1ccccc12", "note": "(stereo not given)", "Potency": "inconclusive [inhibitor, partial curve, poor fit]"}, {"smiles": "Cc1cc(OCC(=O)Nc2ccc(N3CCN(C(=O)c4ccco4)CC3)cc2)cc(C)c1Cl", "Potency": "inactive"}, {"smiles": "CNC(=O)CC1C(=O)N(c2ccc(Cl)cc2)C(=S)N1NC(=O)c1cccc(F)c1", "note": "(stereo not given)", "Potency": "inactive"}, {"smiles": "O=C(NCCc1ccccc1)c1ccc(CS(=O)Cc2ccc(Cl)cc2)o1", "note": "(stereo not given)", "Potency": "inconclusive [inhibitor, single point]"}]}]}
